Data from publication PMC12040169 (PLOS Biology, 2025).
Like-named read-outs stand apart in the source and are kept apart here. The list shows a part of the results.

Tested on: T1, C. trachomatis L2/434/Bu expressing GFP (CTL2-GFP)
T1 construct: L2/434/Bu GFP intracellular growth in HeLa cells
Parameters: species or system HeLa; C. trachomatis total inclusion area by high-content imaging, normalised to DMSO
Procedure, shortened: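 Host cell viability was gauged from Hoechst-stained nuclei counts, while chlamydial growth was taken from total inclusion area and inclusion number per well. Cells were fixed and imaged by high-content microscopy once bulk GFP and resorufin fluorescence had been measured.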

[1] = total inclusion area; 28.5 h, 10 µM; inhibitor

Row | SMILES | % of control remaining [1] | % of control remaining (total inclusion area, 28.5 h, 10 µM, inhibitor)
1 | COC(=O)C1CCCCN1S(=O)(=O)c1cccs1 (stereo not drawn) [CBK051135] | 60.1383 | 
2 | c1ccc(CCNc2nccnc2-c2cccs2)nc1 [CBK036776] | 115.029 | 
3 | CN(C)c1ccc(C(=O)N2CC(=O)Nc3ccccc32)cc1 [CBK017839] | 90.3739 | 
4 | NNC(=O)CSc1nnc(-c2ccc(Cl)cc2)n1-c1ccccc1 [CBK263010] | 114.291 | 
5 | Cc1ccc2c(CC(=O)NCCn3cncn3)coc2c1 [CBK283240] | 88.9376 | 
6 | O=C(CCS(=O)(=O)c1ccccc1)Nc1cccnc1N1CCNCC1 [CBK028262T] | 85.6548 | 
7 | CCOC(=O)C1CCN(S(=O)(=O)c2cccc3cccnc23)CC1 [CBK051242] | 92.4422 | 
8 | CC(=O)N1C[C@H]2CCCN(S(=O)(=O)c3ccc4c(c3)CCC4)[C@H]2C1 [CBK282254] | 122.054 | 
9 | COc1ccc(C(=O)N2CCN(c3cnn(C)c(=O)c3Cl)CC2)cc1 [CBK305720] | 106.587 | 
10 | COc1cc(OC)cc(C(=O)N2CCC3(CC2)NC(=O)c2ccc(OC)cc2O3)c1 [CBK166328] | 79.6367 | 
11 | Cc1nc(C(F)(F)F)ccc1C(=O)N1CCCC1c1ccc[nH]1 (stereo not drawn) [CBK306328] | 53.2541 | 
12 | O=C(O)c1cc(NC(=O)c2ccc(NC(=O)c3ccco3)cc2)cc(C(=O)O)c1 [CBK265149] | 68.9237 | 
13 | COc1cc(-c2nc3ncccc3cc2NS(C)(=O)=O)cc(OC)c1OC [CBK085697] | 90.2403 | 
14 | CC(C)Nc1nc2ccccc2nc1OCc1ccc(C2CC2C(=O)N(C)C)cc1 (stereo not drawn) [CBK166091] | 91.7891 | 
15 | CN1CCC(N2CCN(C(=O)c3ccccc3Nc3cccc(C(F)(F)F)c3)CC2)CC1 [CBK149097] | 105.98 | 
16 | CC(NCC(O)COCc1ccc(Cl)cc1)c1ccccc1 (stereo not drawn) [CBK027972C] | 98.6361 | 
17 | CCC(=O)Oc1ccc(C(=O)N2CCN(c3ccccc3F)CC2)cc1 [CBK307538] | 67.3276 | 
18 | CN(C)CCNC(=O)NC(c1ccccc1)c1ccccc1 [CBK263505C] | 99.5471 | 
19 | COCOc1ccc(-c2ncc(OCc3ccc4c(c3)OCO4)nc2N)cc1 [CBK145101] | 89.9792 | 
20 | N#CCCCN1CCC(Oc2cncc(OCc3cccnc3)n2)C1 (stereo not drawn) [CBK084466] | 94.9877 | 
21 | Nc1cc(S(=O)(=O)Nc2ccc(C(F)(F)F)cc2)ccc1N1CCCNCC1 [CBK001518C] | 79.3373 | 
22 | CCN(Cc1ccccc1)c1ccc(C2NC(=O)NC(O)(C(F)(F)F)C2C(=O)c2cccnc2)cc1 (stereo not drawn) [CBK264999] | 111.897 | 
23 | Cc1nn(CC(=O)N2C(C)CCCC2C)c(=O)c2cc3occc3n12 (stereo not drawn) [CBK283555] | 97.8138 | 
24 | CCCc1nnc(C(=O)NC(=O)NCCCN(C)C)s1 [CBK018853] | 5.4365 | 
25 | COc1cccc(NC(=O)c2ccncc2Cl)c1 [CBK174695] | 63.6094 | 
26 | O=C(NC1CCCCC1)O[C@@H]1CO[C@H]2[C@@H]1OC[C@@H]2NS(=O)(=O)Cc1ccccc1 [CBK289467] | 91.3987 | 

Row | SMILES | % of control remaining [1] | % of control remaining (total inclusion area, 28.5 h, 10 µM, inhibitor)
27 | O=C1CC[C@@H](NCc2ccccn2)[C@H](c2cc(F)cc(F)c2)N1 [CBK282911] | 80.2044 | 
28 | Cc1cc(/C=C(/C#N)c2cccc(F)c2)c(C)n1-c1ccc(S(N)(=O)=O)cc1 [CBK268268] | 90.4608 | 
29 | COc1ccc2nc(-n3nc(C(=O)NCc4ccncc4)c4ccccc43)sc2c1 [CBK048521] | 101.772 | 
30 | O=C(Nc1nnc(C2=COCCO2)o1)c1ccco1 [CBK287412] | 99.9074 | 
31 | O=C(O)c1cccc(NC(=O)c2ccc(COc3ccc(-c4ccccc4)cc3)o2)c1 [CBK299778] | 102.618 | 
32 | CCOC(=O)COc1c(Cl)cc(/C=C/c2[nH]c(=O)[nH]c(=O)c2[N+](=O)[O-])cc1Cl [CBK267003] | 100.974 | 
33 | COc1ccc(C(C)C)cc1-c1cn2ccnc2c(NC2CCOCC2)n1 [CBK066320] | 95.328 | 
34 | CC(=O)N[C@H]1CO[C@H]2[C@@H]1OC[C@@H]2Nc1nccc(-c2cccc(F)c2)n1 [CBK289534] | 107.851 | 
35 | O=C(c1ccoc1)N1CCC2(CCCN(Cc3ccc4ccccc4c3)C2)C1 (stereo not drawn) [CBK132811] | 61.4235 | 
36 | CC1(OCCCN2CCCCC2)SC(NC2CC3CCC2C3)=NC1=O (stereo not drawn) [CBK115611] | 104.447 | 
37 | COc1cccc(Cc2c(C)nc3c(C(=O)NCC4COc5ccccc5O4)cnn3c2C)c1 (stereo not drawn) [CBK162064] | 107.523 | 
38 | CC1=NN(c2ccc(S(N)(=O)=O)cc2)C(=O)/C1=C\c1ccc(-c2cccc(C(=O)O)c2)o1 [CBK263483] | 99.6898 | 
39 | O=C(O)C(CCCCN1C(=O)c2ccccc2C1=O)N1C(=O)c2ccccc2C1=O (stereo not drawn) [CBK265250] | 112.219 | 
40 | O=C(c1ccccc1C(F)(F)F)N1CCC(n2c(=O)[nH]c3ccccc32)CC1 [CBK149706] | 69.0737 | 
41 | CC(=O)Nc1ccc(CNc2ccc(C#N)cn2)cc1 [CBK297790] | 106.071 | 
42 | CC(C)C(=O)Nc1ccc2c(-c3ccc4c(c3)OCCCO4)ccnc2n1 [CBK073675] | 102.033 | 
43 | COc1ccc(S(=O)(=O)N(c2ccccc2)C2CCNCC2)cc1OC [CBK165076T] | 92.541 | 
44 | OC(Cn1ccnc1)C1CCCCC1 (stereo not drawn) [CBK010092] | 72.5085 | 
45 | Cc1c(Cl)ccc2c(C(=O)Nc3ccc(S(=O)(=O)N4CCOCC4)cc3)cc(-c3cccnc3)nc12 [CBK267718] | 104.373 | 
46 | O=C1NCCCCC1N1CCS(=O)(=O)CC1 (stereo not drawn) [CBK017083] | 61.306 | 
47 | COc1ncc(C(=O)NCc2cccnc2N(C)C2CCCCC2)cn1 [CBK306870] | 53.4908 | 
48 | CN(C)S(=O)(=O)Nc1cccc2cc[nH]c12 [CBK159505] | 86.329 | 
49 | COC(=O)C1=C(Cn2ccc(C(F)(F)F)n2)NC(=O)NC1c1cc(C)ccc1C (stereo not drawn) [CBK268792] | 60.9605 | 
50 | O=C(Nc1ccccc1)c1ccc(N2CCN(c3ccccn3)CC2)c(S(=O)(=O)N2CCOCC2)c1 [CBK266810] | 92.0894 | 
51 | O=C(NCc1ccccn1)c1cc(-c2ccc(Cl)cc2)on1 [CBK116558] | 119.175 | 
52 | c1cnc2cc(Oc3ccc4nccnc4c3)ccc2n1 [CBK267266] | 108.105 | 

Row | SMILES | % of control remaining [1] | % of control remaining (total inclusion area, 28.5 h, 10 µM, inhibitor)
53 | COc1ccc(CNC(=O)N2CCN(c3cc(C(F)(F)F)ccn3)CC2)cc1OC [CBK162344] | 84.013 | 
54 | CC1CCc2n[nH]c(C(=O)N3CCC(O)C(C)C3)c2C1 (stereo not drawn) [CBK283207] | 99.4975 | 
55 | Fc1cc2c3c(c1)c1c(n3CCO2)CCNCC1 [CBK018018C] | 82.5157 | 
56 | CC1(C)C2C(=O)C(c3ccccn3)=C(N)N2C(C)(C)C1(C)C (stereo not drawn) [CBK022153] | 63.464 | 
57 | CCC(C)NCc1cccc(Oc2ncccn2)c1 (stereo not drawn) [CBK288090] | 81.7475 | 
58 | Cc1cc(C)nc(Nc2ccc(C3CCCN(C(=O)c4c(C)oc5c4CCCC5)C3)nc2)n1 (stereo not drawn) [CBK285988] | 130.702 | 
59 | O=c1[nH]c2ncc(-c3cccnc3)nc2n1Cc1ccc(Cl)cc1 [CBK064561] | 100.847 | 
60 | CC(=O)Nc1nnc(SCC(=O)N2CCN(c3ccc(Cl)cc3)CC2)s1 [CBK307384] | 43.4796 | 
61 | CCN1CCCN(c2cc(OCc3ccc(Cl)c(Cl)c3)ncn2)CC1 [CBK083786] | 86.8476 | 
62 | Cn1c(N2CCCC(C(=O)NCC3CC3)C2)nc2ccccc21 (stereo not drawn) [CBK283987] | 96.0278 | 
63 | CCN(CC)C(=O)CN1C(=O)N2CCCN=C2c2ccc(Cl)cc21 [CBK284386] | 85.4411 | 
64 | Cc1nnc(SCC(=O)Nc2nsc(-c3ccc(Cl)cc3)n2)s1 [CBK266525] | 94.0925 | 
65 | COc1cccc(OC)c1-c1cn2ccnc2c(N(C)CCN(C)C)n1 [CBK066398] | 133.803 | 
66 | COc1ccc([C@@]23CC[C@@H](NC(=O)Cc4ccc(Cl)cc4)CC2N(C)CC3)cc1OC (stereo partly drawn) [CBK074971T] | 104.383 | 
67 | Cc1c(C(=O)O)sc2nc(SCC(=O)NCc3ccccc3)[nH]c(=O)c12 [CBK287609] |  | 80.406
68 | CCNC(=S)N1CCN(CCNC=C2C(=O)CC(c3ccco3)CC2=O)CC1 (stereo not drawn) [CBK264742] | 108.989 | 
69 | COc1ccc(OC)c(-n2cnc3c2NC(=O)CC3c2ccccc2Cl)c1 (stereo not drawn) [CBK287983] | 113.764 | 
70 | CC(C)NC(=O)c1cc(C2CCN(C(=O)CCOc3ccccc3F)C2)nc2ccccc12 (stereo not drawn) [CBK285917] | 96.5472 | 
71 | CC(O)c1cc2c(cc1NC(=O)c1cnn3c1NC(c1ccco1)CC3C(F)(F)F)OCO2 (stereo not drawn) [CBK268850] | 111.665 | 
72 | CN1C(=O)c2ccccc2C(=O)[C@@]2(C)CN(C(=O)c3ccccc3)C[C@@H]12 [CBK281685] | 106.605 | 
73 | CN1CCN(C)C(COc2cc(C(F)(F)F)ccn2)C1 (stereo not drawn) [CBK113460] | 94.36 | 
74 | O=C(COc1ccccc1)Nc1ccc(N2CCOCC2)c2nonc12 [CBK268149] | 82.9008 | 
75 | C=CCn1c(CCCNC=O)nc2ccccc21 [CBK269375] | 94.4036 | 
76 | O=C(O)C(Cc1ccccc1)Nc1ncnc2c1oc1ccccc12 (stereo not drawn) [CBK266719] | 81.6101 | 
77 | CC(SCc1ccccc1)C(=O)NCC1CCN(c2ccccc2)C1 (stereo not drawn) [CBK298329] | 99.6056 | 
78 | O=C(c1cc(S(=O)(=O)NCc2ccco2)c(Cl)cc1Cl)N1CCC1 [CBK305004] | 88.0085 | 
